Reference: the RNAGym collection of RNA variant scans (doi:10.7554/elife.90254)
The source gives no read counts; variants with many changes may rest on few reads.

B1: LINE1-mini (parent)
chain: GGCAGAGCUCAACACAGCGUGGCAAAGUGGCUGUGGCUAGACUGCC

Variants of: B1
Test: self-cleavage, relative activity (ratio to wild type); higher = more cleavage; in vitro, sequencing; the parent is a self-cleaving ribozyme

Row | Variant | self-cleavage
1 | A4G U9A A16C G21U C31U | 0.03
2 | A4U C15A G33A A39C C45A C46A | 0.04
3 | A4G U34A C37U U38A | 0.02
4 | A4U C18G G36A | 0.21
5 | A4U U9A C15A C18A | 0.31
6 | A4U G19U A24C A26U | 0.02
7 | A4U U9G A16G G35A | 0.11
8 | A4U G5A A6U U28C | 0.08
9 | A4U G7A C8U | 0.17
10 | A4G C10A C13U C18A G22U G30C G35A | 0.02
11 | A4G G21C A25G G29A | 0.68
12 | A4G G17U A41U C45A | 0
13 | A4U A6U C15G C31G G35C C37A U43G | 0
14 | A4G U9G G22U A26U | 0.09
15 | A4U C8G G17C | 0.03
16 | A4U C13A A16C C23U A25U | 0.05
17 | G5A A6C C23A U38G | 0.02
18 | A4U A11C G21U U32C | 0.06
19 | A4U C15U G40A | 0.04
20 | A4U G5U G36U | 0.02
21 | A4G G30U C31G U34G U43G | 0.01
22 | A4U A6G A16U | 0.26
23 | A4G G5C A26G | 0.02
24 | A4G U20A G21A U28G G40A | 0.11

Row | Variant | self-cleavage
25 | A4U G7A A39U | 0.1
26 | A4U C8A G19A | 0.65
27 | A4U G21U A26G | 0.24
28 | A4U A12G G44A | 0.26
29 | A4U A6U C8U G30U | 0.04
30 | A4G G27C G35A | 0.04
31 | A4G G5A A12C A25U U38A | 0.01
32 | A4U A11G C23A G27U G35C | 0.03
33 | A4U C8U C10A G21A U34A | 0.04
34 | A4U G5A G30U | 0.08
35 | A4U G17C G29A | 0.09
36 | A4G C23U U28A | 0.11
37 | A4U U20A G22C | 0.24
38 | A4U C10U A26G G27C U28G | 0.05
39 | A4U G17A G27A G30A | 0.44
40 | A4G G17U U20A G21C G22U G27U | 0.1
41 | A4G C8U A12G C18U | 0.14
42 | A4G U9G G21U | 0.04
43 | A4U G5A U28C C31U | 0.08
44 | A4U U32G C45G C46A | 0.02
45 | A4G G7U G17C G21U | 0.06
46 | A4G G7C A26U | 0.03
47 | A4U C10G U20A G21A | 0.04
48 | A4U C31U C45G | 0.07

Row | Variant | self-cleavage
49 | A4G U28C G29U G44A | 0.02
50 | A4U A16U G33C A41C | 0.02
51 | A4U G19A U20C C42A | 0.23
52 | A4U U9G C15U C18U G19A C23U C45G | 0.25
53 | A4U A6G U43C | 0.06
54 | A4U C15U G19A U20A G29U | 1.01
55 | A4G G7C G21C G29U C31U | 0.04
56 | A4U C8U C15A C18A | 0.28
57 | A4G C15G G22U C37U | 0.02
58 | A4U G5C U28A C46G | 0.02
59 | A4U U34C U38C | 0.3
60 | A4G G5C U9G G27U G33U A41G | 0.02
61 | A4U G5A G7U C10A C23G G27A | 0.04
62 | A4U U32A G35A A39G | 0.09
63 | A4G C13A C18A G21A C37U C46A | 0.04
64 | A4U C18G G22A G40A | 0.03
65 | A4U G5U G21C A39G | 0.1
66 | A4G G7U C23A C31A A41U | 0.07
67 | A4G U9A C13U A14G C15U G22A U28G G36C A39G | 0.02
68 | A4U G17A G40A | 0.05
69 | A4U U32G G33U | 0.07
70 | A4U A14G G19U C45G C46A | 0.01
71 | A4G G17A G36C | 0.01
72 | A4U G17C A24C | 0.06

Row | Variant | self-cleavage
73 | A4U G27A U38A A41G C42G | 0.09
74 | A4U C10U A14U C45A | 0.04
75 | A4U A11G A14U | 0.03
76 | A4U G5C C10G A12U G30A | 0.02
77 | A4U C15U A16U G19U | 0.03
78 | A4U U32C C46U | 0.03
79 | A4U C18U C23U G36U | 0.05
80 | A4G C23U G27U | 1.73
81 | A4G C10A C15U C23A G29U G36U C46A | 0.01
82 | A4U A26C U28G C31G | 0.05
83 | A4G G5A G19U C45G | 0.01
84 | A4U A12U C23A G44C C46A | 0.1
85 | A4G G5A G40A | 0.17
86 | G5A A6C C10A G19C G29A | 0.03
87 | A4U G5A G7U G40A | 0.12
88 | A4U U9G A25G G35C G40C | 0.21
89 | A4G C10A A16G C37U C42A U43A | 0
90 | A4U U32G G40U G44A | 0.04
91 | A4G G17U C18A G33A | 0.57
92 | A4U A12G G17A G22A G30U C42U | 0.01
93 | A4U A11G G27C G35C G36A A41G C46A | 0.02
94 | A4G G22A G35A | 0.11
95 | A4U G5C C10A G17C G19A C23U A24G C42U | 0.01
96 | A4G U9C U32A | 0.03

Row | Variant | self-cleavage
97 | A4U U20A A39G | 0.05
98 | A4G C10U G44C | 0.02
99 | A4G C18A U32A G36C A39U | 0.02
100 | A4U G19C U34A C45A | 0.06
101 | A4G C15G G35U C45A | 0.09
102 | A4U C15A G27U G33U | 0.03
103 | A4U U9G C18A U28A C31A C37G G40A | 0.12
104 | A4U G19U G40A | 0.05
105 | A4U C8A U38G | 0.09
106 | A4G G22C G30U | 0.81
107 | A4G G5C C15G G29A C31A | 0
108 | A4U A26G G29U | 0.14
109 | A4U A24C C37U G40U | 0.01
110 | A4G G30A A41U | 0.66
111 | A4G C8U A16G G29U G30U C31A | 0.15
112 | A4G G17U C18U U28C G35U A39U | 0.03
113 | A4U C10U G17A G36U | 0.07
114 | A4G C18G G36U C37A U38A | 0.54
115 | G5A A6C A26G | 0.5
116 | A4G C10G U38C G40A | 0.01
117 | A4G G5A A14C U34G | 0.09
118 | A4G G7U U9A A11G U20C | 0.01
119 | A4U A12U G22A G27U U28G G33A | 0.02
120 | A4U C10G A39C | 0.03

Row | Variant | self-cleavage
121 | A4U U9C A14C A25U | 0.12
122 | A4G G5U G7C A11C U38C | 0.01
123 | A4U A24G A25G A41C | 0.04
124 | A4G G22C U43C | 0.24
125 | A4U U9G U34A C37G | 0.05
126 | A4G G5A A12C A16C | 0
127 | A4U G22A G35C | 0.02
128 | A4G C13U C45U | 0.65
129 | A4G C13G G22U A39G C42G U43A C45U | 0.03
130 | A4G G7C A16G | 0.13
131 | A4U A6C G7A G17U | 0.05
132 | A4U A11C A25C | 0.2
133 | A4U A11C A25G | 0.03
134 | A4G C15U C18U A26G C31U G44U C45U | 0.01
135 | A4G G29U C46A | 0.05
136 | A4U G5A G17U G19U | 0.02
137 | A4G G22U U32C | 0.2
138 | A4U G7A C10G U20C U34A A41U | 0.01
139 | A4G C15U A25C G36U | 0.19
140 | A4G C15U U38A | 0.17
141 | A4U G36C A41U | 0.03
142 | A4G C31A A39C | 0.03
143 | A4U A6G C15G G35C | 0.03
144 | A4G C13G A14C | 0.01

Row | Variant | self-cleavage
145 | A4G U9C G40C | 0.03
146 | A4U G21U C31G | 0.03
147 | A4U G33A C45U | 0.18
148 | A4U G33A G44U | 0.01
149 | A4G C15G G36C | 0.07
150 | A4U A16G G30A | 0.07
151 | A4U C18A G30A | 0.03
152 | A4G G5U G22U G30U G40U | 0.09
153 | A4U C8G C18U C23U U28C | 0.11
154 | A4G C13A C15G G22A | 0.06
155 | A4G G7U C10A G22U A39U | 0.03
156 | A4U G7C G17A G30U | 0.04
157 | A4U A6G A26U G33U C42U | 0.14
158 | A4U C10A A25U G29A C31U G40C G44A C46G | 0
159 | A4G G27A G30A | 0.12
160 | A4G C10U G19C A26G C45A | 0.03
161 | A4U A12G A16C G21C | 0.04
162 | A4U A16C G36U | 0.18
163 | A4U G17C U20C | 0.03
164 | A4U G7U G27U | 2.56
165 | A4U A6G G30C | 0.12
166 | A4U U9A U43G C45U | 0.37
167 | A4U A6U C8A G21A | 0.54
